The target in the assay is P2Y12 receptor (Homo sapiens, UniProt Q9H244). Briefly: [33P]-2MeS-ADP binding to recombinant human P2Y12 membranes (Assay 3). Further details: expressed in transfected cells; host or cells: HEK cells. Conditions: HEK cell membranes expressing human P2Y12, competition with 33P 2MeS-ADP. As to the method: 3. Human P2Y12 Recombinant Cell Membrane Binding Assay with ^33P 2MeS-ADP.
The ability of a test compound to bind to the P2Y12 receptor was evaluated in a recombinant cell membrane binding assay. In this competitive binding assay, the test compound competed against a radiolabelled agonist for binding to the P2Y12 receptor, expressed on the cell membrane. Inhibition of binding of the labeled material was measured and correlated to the amount and potency of the test compound. Data from this assay are presented in Table F. This binding assay is a modification of the procedure in Takasaki, J. et. al, Mol. Pharmacol., 2001, Vol. 60, pg. 432.
HEK cells were transfected with the pDONR201P2Y12 vector and cultured in MEM with GlutaMAX I, Earle's salts, 25 mM HEPES (Gibco # 42360-032) containing 10% dialyzed FBS (Gibco # 26400-044), 100 μM nonessential amino acids (Gibco # 11140-050), 1 mM sodium pyruvate (Gibco # 11360-070), 0.05% geneticin (Gibco #10131-027), 3 μg/mL blasticidin (Fluka brand from Sigma # 15205), and 0.5 μg/mL puromycin (Sigma # P-8833). […]
The plates were incubated at room temperature for 1 hour. […] The filter plates were sealed, shaken for 30 minutes, and counted on a Top Count. Data were analyzed using a four-parameter curve fit with a fixed minimum and maximum experimentally defined as the average positive and negative controls on each plate, and with a hill slope equal to one. […]

Not every entry of the source has a single result; some have several. This list holds those alone. The source may hold further records. The values listed for one entry seem to repeat one measurement on other runs, samples or individuals.

Usually IC50 stands for the concentration that gives 50% inhibition. Usually Ki stands for a dissociation constant, usually derived from enzyme kinetics or from competition with a known ligand.

UniProt Q9H244, sequence (Q9H244 whole entry): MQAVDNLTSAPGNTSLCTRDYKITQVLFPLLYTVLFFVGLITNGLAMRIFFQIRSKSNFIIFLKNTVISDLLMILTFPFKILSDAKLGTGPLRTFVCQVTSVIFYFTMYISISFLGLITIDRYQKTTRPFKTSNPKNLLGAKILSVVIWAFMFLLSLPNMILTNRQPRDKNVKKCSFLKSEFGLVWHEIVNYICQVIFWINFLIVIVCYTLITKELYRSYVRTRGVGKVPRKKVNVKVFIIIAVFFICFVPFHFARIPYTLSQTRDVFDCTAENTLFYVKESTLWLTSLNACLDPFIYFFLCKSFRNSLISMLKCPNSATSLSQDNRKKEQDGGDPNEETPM

As for `CCc1cc2c(N3CCN(C(=O)Cc4ccccc4)CC3)nc(SCC(=O)Nc3ccccc3)nc2s1` [Example 23, 2-({6-Ethyl-4-[4-(phenylacetyl)piperazin-1-yl]thieno[2,3-d]pyrimidin-2-yl}thio)-N-phenylacetamide], the IC50 was > 10 µM and 380 nM [lines of one column]; the Ki was > 5.7 µM and 210 nM [lines of one column].

Source of the values: patent publication US20080176857A1, “4-Piperazinnylthieno[2,3-d]Pyrimidine Compounds as Platelet Aggregation Inhibitors” (priority 2005, published 2008).
